The full ranking holds about 110,000 compounds; the median of “z-score” is about -0.1, and the highest 2% start at about 2. Some of the results follow.

The experiment has as its target Metabotropic glutamate receptor 8 (Rattus norvegicus) (UniProt P70579). Briefly: mGluR8 Gi/Go-coupled signaling modulation – cell-based, rat, thallium flux, HTS, primary screen (AID 488969). The settings on record: HEK293 rat mGluR8, GIRK (G protein-gated inwardly rectifying potassium channel) thallium flux, FluoZin2; at 10 µM; stronger effect = higher value; submaximal glutamate (EC20) added with thallium.
Chain of UniProt P70579 (P70579 whole entry, looked up): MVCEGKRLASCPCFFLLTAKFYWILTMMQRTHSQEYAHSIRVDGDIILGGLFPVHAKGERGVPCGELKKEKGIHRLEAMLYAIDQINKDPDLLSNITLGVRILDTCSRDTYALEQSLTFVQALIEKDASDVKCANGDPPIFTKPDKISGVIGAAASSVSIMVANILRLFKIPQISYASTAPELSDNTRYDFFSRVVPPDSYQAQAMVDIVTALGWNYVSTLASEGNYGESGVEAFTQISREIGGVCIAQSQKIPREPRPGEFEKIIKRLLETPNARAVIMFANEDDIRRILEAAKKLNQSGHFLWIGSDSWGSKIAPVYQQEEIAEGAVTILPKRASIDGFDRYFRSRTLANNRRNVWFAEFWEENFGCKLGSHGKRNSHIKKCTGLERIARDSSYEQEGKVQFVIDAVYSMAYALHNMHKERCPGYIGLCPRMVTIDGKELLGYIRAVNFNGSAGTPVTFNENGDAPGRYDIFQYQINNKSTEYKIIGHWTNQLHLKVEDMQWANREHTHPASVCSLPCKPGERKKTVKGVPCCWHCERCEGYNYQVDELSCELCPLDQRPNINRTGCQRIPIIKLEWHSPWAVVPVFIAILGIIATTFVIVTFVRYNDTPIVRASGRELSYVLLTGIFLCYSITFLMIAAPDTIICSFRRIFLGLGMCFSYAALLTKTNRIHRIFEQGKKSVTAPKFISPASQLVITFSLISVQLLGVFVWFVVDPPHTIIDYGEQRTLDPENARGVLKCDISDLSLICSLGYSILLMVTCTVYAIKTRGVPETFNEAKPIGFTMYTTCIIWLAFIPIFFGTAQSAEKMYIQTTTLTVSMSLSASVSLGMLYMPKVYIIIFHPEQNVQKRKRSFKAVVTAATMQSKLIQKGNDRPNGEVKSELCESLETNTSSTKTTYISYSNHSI
`O=C(NCCN1CCOCC1)c1cc2cc(Br)ccc2oc1=O` showed a z-score of 0.0205.

As for `CCOc1ccc(-c2noc(COC)n2)cc1OC`, the z-score was -0.328.

With `CN(C)c1ccc(NC(=O)/C=C/c2ccccc2Cl)cc1`, the z-score is -0.0538.

For `Fc1ccc(C2NCCn3cccc32)cc1` (stereo unspecified), the z-score was determined as 0.135.

Consider `Cc1ccc(C(O)c2ccncc2)cc1` (stereo unspecified), for which the z-score was -0.224.

Regarding `COc1ccc(CCN2C(=O)NC(NS(=O)(=O)c3ccc(N)cc3)(C(F)(F)F)C2=O)cc1OC` (stereo unspecified), the z-score was found to be 0.146.

With `CCCCNC1CCS(=O)(=O)C1` (stereo unspecified), the z-score was -0.274.

As for `CCOC(=O)n1c(SCC(=O)N(CC)CC)nc2ccccc21`, the z-score is -0.422.

Regarding `O=C(Cc1n[nH]c(=O)[nH]c1=O)N/N=C/c1ccccc1O`, the z-score was -0.173.

Consider `Cc1c(N2C(=O)CSC23C(=O)Nc2ccccc23)c(=O)n(-c2ccccc2)n1C` (stereo unspecified), for which the z-score was -1.33.

As to `Cc1ccc(-c2nnc(N(C)C(=O)c3cccnc3)s2)cn1`, the z-score is -0.196.

Take `C/C(=N\NC(=O)C1CC1c1ccccc1)c1cccc([N+](=O)[O-])c1` (stereo unspecified): the z-score is -0.468.

As for `O=C(CSc1n[nH]c(-c2ccc(S(=O)(=O)N3CCCCC3)cc2)n1)Nc1nccs1`, the z-score was 0.951.

In turn, `CC(C)(C)c1ccc(/C=C/C(=O)N2CCc3ccccc3C2)cc1` registered a z-score of 0.00531.

With `c1ccc(-c2nc(Sc3ncnc4c3cnn4-c3ccccc3)n[nH]2)cc1`, the z-score was -0.225.

`COc1ccc2c(c1)-c1nc(NC(=O)c3cccs3)sc1CC2` showed a z-score of -0.897.

In turn, `CC1CCN(C(=O)c2cc(Cl)nc3ccccc23)CC1` yielded a z-score of -0.231.

The compound `Cc1ccc2c(c1)CCCN2C(=O)c1c(C)noc1C` had a z-score of -0.139.

As for `O=C(Nc1cccc2c1CCCC2)C1CCN(C(=O)NC2CCCCC2)CC1`, the z-score was -0.522.

`CN(C)C(=O)c1ccccc1Sc1ccc(Cl)cc1Cl` displayed a z-score of -0.793.

As for `O=C(COc1ncnc2c1cnn2-c1ccccc1)Nc1ccc(S(=O)(=O)N2CCCCC2)cc1`, the z-score is -0.0899.

`O=C(NNc1cc(N2CCOCC2)nc(N2CCOCC2)n1)c1ccc(Cl)c(Cl)c1` showed a z-score of 0.14.

For the compound `O=C(Nc1ccccc1)Nc1nnc(CSCc2ccccc2Cl)s1`, the z-score came to 0.0284.

The compound `CC(C)Cc1nnc(NC(=O)Cc2ccccc2[N+](=O)[O-])s1` displayed a z-score of 0.0608.

For `CCc1cccc(CC)c1NC(=O)C1CN(S(=O)(=O)c2ccccc2)CCN1S(=O)(=O)c1ccccc1` (stereo unspecified), the z-score is -0.125.

For the compound `CCCn1nc2cc(C(=O)NC3CCCc4ccccc43)ccc2c1OCC` (stereo unspecified), the z-score was -0.533.

In turn, `O=C(OCCCN=C1NS(=O)(=O)c2ccccc21)C1CC(=O)N(c2ccc(Cl)cc2)C1` (stereo unspecified) came in with a z-score of -0.412.

As for `COc1ccc(CNC(=S)N/N=C/c2ccncc2)cc1`, the z-score is -0.111.

`CN1CCN(CCCNC(=O)c2ccc(CS(=O)(=O)c3ccc(Br)cc3)o2)CC1`: the z-score was -0.0805.

For the compound `O=C(Nc1ccc2oc(-c3ccccc3)nc2c1)c1ccncc1`, the z-score was -0.137.

`COc1ccc(Oc2nccc(-c3ccccc3)c2C#N)cc1` gave a z-score of -0.13.

Values taken from PubChem BioAssay AID488969 (Vanderbilt High Throughput Screening Facility, 2010).
